Results from a collection of fitness landscapes (doi:10.1016/j.celrep.2020.107928).
In all, about 81,000 sequences were measured (“one-hybrid fitness for binding parS DNA”: median about -0.17, highest 2% from about 0.51 on). The list shows a part of the results.

B1: Caulobacter ParB omega fusion; a variant is named by its letters at X, in order, B8GW30 (parent)
chain: MESVVVGEPGMSEGRRGLGRGLSALLGEVDAAPAQAPGEQLGGSREAPIEILQRNPDQPRRTFREEDLEDLSNSIREKGVLQPILVRPSPDTAGEYQIVAGERAWRAAQRAGLKTVPIMVRELDDLAVLEIGIIENVQRADLNVLEEALSYKVLMEKFERTQENIAQTIGKSXSHVANXMRLLXLPDEVQSYLVSGELTAXHARAIAAAADPVALAKQIIEGGLSVRETEALARKAPNLSAGKSKGGRPPRVKDTDTQALESDLSSVLGLDVSIDHRGSTGTLTITYATLEQLDDLCNRLTRGI

Variants of: B1
Assay: one-hybrid fitness for binding parS DNA (scaled: cognate 1, non-cognate 0); higher = stronger binding
Conditions: with parS DNA site
In short: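 The reporter was HIS3, with the binding site 19 bp from the promoter, in E. coli USO used for bacterial one-hybrid selection of Caulobacter ParB libraries with four specificity codons randomised. Growth was on M9 lacking histidine, with 0.1 mM IPTG and 5 mM 3-AT, for 48 hours at 37°C. Illumina sequencing covered plasmids before and after selection; three replicate libraries were pooled and variants with under 10 reads dropped. A fitness score is the log change in variant-to-wild-type read ratio, rescaled to the cognate and non-cognate references.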

Variant	one-hybrid fitness for binding parS DNA
IPML	≤ 0.2
QNGY	≤ 0.2
PRAC	≤ 0.2
PGKC	≤ 0.2
TVSL	≤ 0.2
MRVF	≤ 0.2
DYFS	≤ 0.2
KSFR	≤ 0.2
FLFC	≤ 0.2
ARHK	≤ 0.2
ATSK	≤ 0.2
QSGR	≤ 0.2
LMVL	≤ 0.2
ERFS	≤ 0.2
WITC	≤ 0.2
CIQC	≤ 0.2
NTGR	≤ 0.2
SVDP	≤ 0.2
RWQQ	≤ 0.2
AERG	≤ 0.2
MRYS	≤ 0.2
SHGY	≤ 0.2
WRDL	≤ 0.2
GRRL	≤ 0.2
DDLG	≤ 0.2

Variant	one-hybrid fitness for binding parS DNA
TIRE	≤ 0.2
NLDM	≤ 0.2
VHNR	≤ 0.2
RYQM	0.31
YKKT	≤ 0.2
HKEG	≤ 0.2
TIEP	≤ 0.2
REPE	≤ 0.2
AKQR	≤ 0.2
KKRR	≤ 0.2
QYAE	≤ 0.2
NGLR	≤ 0.2
EADC	≤ 0.2
TSEA	≤ 0.2
VDIC	≤ 0.2
AGPW	≤ 0.2
RQAP	≤ 0.2
KPRA	≤ 0.2
SPHA	≤ 0.2
LLGI	≤ 0.2
SHSV	≤ 0.2
NTDF	≤ 0.2
RDPI	≤ 0.2
LATN	≤ 0.2
THQL	≤ 0.2

Variant	one-hybrid fitness for binding parS DNA
AGQF	≤ 0.2
CTQT	≤ 0.2
NQLT	≤ 0.2
QSDM	≤ 0.2
PPQN	≤ 0.2
AGKG	≤ 0.2
NAKR	≤ 0.2
QEHA	≤ 0.2
AKGD	≤ 0.2
ERKH	≤ 0.2
KTRW	≤ 0.2
SVEL	≤ 0.2
TGPP	≤ 0.2
ARKC	≤ 0.2
YKST	≤ 0.2
LLNG	≤ 0.2
TYQS	≤ 0.2
DVGA	≤ 0.2
SFVF	≤ 0.2
HTDT	≤ 0.2
NPWR	≤ 0.2
RDGL	≤ 0.2
WVSG	≤ 0.2
PKSK	≤ 0.2
QYAH	≤ 0.2

Variant	one-hybrid fitness for binding parS DNA
FRAP	≤ 0.2
STRH	≤ 0.2
TNKA	≤ 0.2
RYIM	0.228
FMSC	≤ 0.2
MCNV	≤ 0.2
WAMC	≤ 0.2
TAPQ	≤ 0.2
SFDS	≤ 0.2
IAQI	≤ 0.2
QYAR	≤ 0.2
RDAK	≤ 0.2
RVIN	0.334
KYGT	≤ 0.2
LDDA	≤ 0.2
LGAL	≤ 0.2
VTCF	≤ 0.2
YGPE	≤ 0.2
QANR	≤ 0.2
GTHG	≤ 0.2
ALNI	≤ 0.2
ESMM	≤ 0.2
NVVT	≤ 0.2
LAHD	≤ 0.2
PELM	≤ 0.2

Variant	one-hybrid fitness for binding parS DNA
TGSH	≤ 0.2
LDNR	≤ 0.2
YPYT	≤ 0.2
MAVI	≤ 0.2
WRTV	≤ 0.2
EFRV	≤ 0.2
QGQT	≤ 0.2
NKMC	≤ 0.2
EMNC	≤ 0.2
SQEG	≤ 0.2
IGHR	≤ 0.2
THKR	≤ 0.2
VELT	≤ 0.2
TLML	≤ 0.2
VNKC	≤ 0.2
CPAL	≤ 0.2
SRWL	≤ 0.2
CQKG	≤ 0.2
LKNE	≤ 0.2
HNFL	≤ 0.2
NAPC	≤ 0.2
CPVD	≤ 0.2
TQMF	≤ 0.2
RVME	≤ 0.2
GNGC	≤ 0.2

Variant	one-hybrid fitness for binding parS DNA
TVFN	≤ 0.2
MISS	≤ 0.2
QTVS	≤ 0.2
FHRI	≤ 0.2
LAFV	≤ 0.2
KDGG	≤ 0.2
HPKM	≤ 0.2
SFFA	≤ 0.2
VSNR	≤ 0.2
FAPS	≤ 0.2
LGTC	≤ 0.2
ADVS	≤ 0.2
QIAV	≤ 0.2
RLAF	0.259
LLRM	≤ 0.2
LHHN	≤ 0.2
KSIS	≤ 0.2
TTWF	≤ 0.2
RMCG	1.04
HQQC	≤ 0.2
MAFF	≤ 0.2
DYSI	≤ 0.2
ITHA	≤ 0.2
AVMT	≤ 0.2
GIWG	≤ 0.2

Variant	one-hybrid fitness for binding parS DNA
KTQR	≤ 0.2
RPEF	≤ 0.2
LSGR	≤ 0.2
YNKM	≤ 0.2
CRDD	≤ 0.2
THET	≤ 0.2
LHLN	≤ 0.2
SQQD	≤ 0.2
TVRN	≤ 0.2
VKPR	≤ 0.2
CVYC	≤ 0.2
LGHD	≤ 0.2
QKEP	≤ 0.2
ITKS	≤ 0.2
QHHF	≤ 0.2
SFRM	≤ 0.2
GKVY	≤ 0.2
LCYT	≤ 0.2
SGRY	≤ 0.2
NEPR	≤ 0.2
LSPA	≤ 0.2
ARVF	≤ 0.2
TQSL	≤ 0.2
HQSM	≤ 0.2
IYLN	≤ 0.2

Variant	one-hybrid fitness for binding parS DNA
CGSR	≤ 0.2
TWYT	≤ 0.2
SSDW	≤ 0.2
RNNE	≤ 0.2
SCGC	≤ 0.2
TMGY	≤ 0.2
EDTS	≤ 0.2
TRKN	≤ 0.2
KFAP	≤ 0.2
CKQR	≤ 0.2
IDKT	≤ 0.2
RQIV	≤ 0.2
KHML	≤ 0.2
DAHR	≤ 0.2
RVQP	≤ 0.2
PLCE	≤ 0.2
SLAR	≤ 0.2
QQDP	≤ 0.2
RADA	0.563
IMGS	≤ 0.2
